Source: the RNAGym collection of RNA variant scans (doi:10.1073/pnas.2313332121)
Variants at the background level are over-represented here.

B1: TPR 5TU (parent)
chain: GGAUCUUCUCGAUCUAACAAAAAAGACAAAUCUGCCACAAAGCUUGAGAGCAUCUUCGGAUGCAGAGGCGGCAGCCUUCGGUGGCGCGAUAGCGCCAACGUUCUCAACUAUGACACGCAAAACGCGUGCUCCGUUGAAUGGAGUUUAUCAUG

Variants of: B1
Assay: polymerase ribozyme fitness, log enrichment relative to wild type (log ratio); higher = more active; in vitro selection for triplet polymerase activity
Summary of the method: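 Frozen incubation at −7 °C formed the core of a single, triplicate in vitro selection round applied to PCR-built, transcribed mutant libraries of each subunit of a heterodimeric triplet polymerase ribozyme. Extended constructs were gel-excised, captured with streptavidin beads and amplified by RT-PCR, and input and output libraries were Illumina-sequenced with a filter of ≥10 input reads and ≥1 read per output. Fitness is the logarithm of genotype enrichment relative to wild-type enrichment, with inverse-variance-weighted replicate averaging, and the logarithm is base 2.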
With GGAUCUUCUCGAUCUAACAAAAAAGACAAAUCUGCCACAAAGCUUGAGAGCAUCUUCUGGUGCAGAGGCGGCAGCCUUCGGUGGCGCGAUAGCGCCAACGUUCUCAACUAUGACACGCAAAACGCGUGCUCCGUUGCAUGGAGUUUAUCAUG [G58U A60G A137C] the “polymerase ribozyme fitness (log ratio)” value was at most -4.2. For GGAUCUUCUCGAUCUAACAAAAAAGACAAAUCUGCCACAAAGCUUGAGAGCAUCUUCUGAUGCAGAGGCGGCCGCCUUCGGUGGGGCGAUAGCGCCAACGUUCUCAACUAUGACACGCAAAAAGCGUGCUCCGUCGAAUGGAGUUUAUCAUG [G58U A73C C85G C123A U135C], the “polymerase ribozyme fitness (log ratio)” value was at most -4.2. In the case of GGAUCUUCUCGAUCUAACAAAAAAGACAAAUCUGCCACAAAGCUUGAGAGCAUCUUCUGAUGCAGAGGCGGCAGCCUUCGGUGGCGCGUUAGCGCCAAAGUUCUGAACUAUGACACGCAAAACGCGUGCUCCGUUGAAUGCAGUUUAUCAUG [G58U A89U C99A C105G G141C], the “polymerase ribozyme fitness (log ratio)” value is reported as at most -4.2. With GGAUCUUCUCGAUCUAACAAAAAAGACAAAUCUGCCACAAAGCUUGAGAGCAUCUUCUGAUGCAGAGGCGGCAGCCUUCGGUGGCGCGAUCGCGCCAUCGUUGUCAACUAUGACACGCAAAACGCGUGCUUCGUUGAAUGGAGUUUAUCAUG [G58U A91C A98U C103G C131U] the “polymerase ribozyme fitness (log ratio)” value was at most -4.2. For GGAUCUUCUCGAUCUAACAAAAAAGACAAAUCUGCCACAAAGCUUGAGAGCAUCUUCUGAUGCAGAGGCGGCAGGCUUCGGUGGCGUGAUAGUGCCAACGUUCUCAACUAUGACACGCAAAACGCGUGCUCCGUUGAAUGGAGUUUAUCAUG [G58U C75G C87U C93U], the “polymerase ribozyme fitness (log ratio)” value was at most -4.2. In the case of GGAUCUUCUCGAUCUAACAAAAAAGACAAAUCUGCCACAAAGCUUGAGAGCAUCUUCUGAUGCAGAGGCGGCAGCAUUCGGUGGCGCGAUAGCGCCAACGUUCUCAACUAUGACACGCAAAACGCGUGCUCCGUUGAAUGGAGUUUAUCAUG [G58U C76A], the “polymerase ribozyme fitness (log ratio)” value is reported as 0.0806. In the case of GGAUCUUCUCGAUCUAACAAAAAAGACAAAUCUGCCACAAAGCUUGAGAGCAUCUUCUGAUGCAGAGGCGGCAGCAUUCGGUGGCGCGUUUGCGCCAACGUUCUCACCUAUGACACGCAAAACGCGUGCUCCGAUGAAUGAAGUUUAUCAUG [G58U C76A A89U A91U A107C U134A G141A], the “polymerase ribozyme fitness (log ratio)” value is reported as at most -4.2. In the case of GGAUCUUCUCGAUCUAACAAAAAAGACAAAUCUGCCACAAAGCUUGAGAGCAUCUUCUGAUGCAGAGGCGGCAGCCUUCGGUGGCGCGAUAGCGCCAACGUUGUCAACUAUGACACGCAAAACGCGUGCUCUGUUGAAUGGUGUUUAUCAUG [G58U C103G C132U A142U], the “polymerase ribozyme fitness (log ratio)” value is reported as at most -4.2. With GGAUCUUCUCGAUCUAACAAAAAAGACAAAUCUGCCACAAAGCUUGAGAGCAUCUUCUGAUGCAGAGGCGGCAGCCUUCGGUGGCGCGAUAGCGCCAACGUUCUUGACUAUGACACGCAAAACGCGUGCUCCGUUGAAUGGAGUUUAUUAUG [G58U C105U A106G C149U] the “polymerase ribozyme fitness (log ratio)” value was 0.147. With GGAUCUUCUCGAUCUAACAAAAAAGACAAAUCUGCCACAAAGCUUGAGAGCAUCUUCUGAUGCAGAGGCGGCAGCCUUCGGUGGCGCGAUAGCGCCAACGUUCUCAACUAUGACACGCAAAACGUGUGCUCCGUUGAAUGGCGUUUAUCCUG [G58U C125U A142C A150C] the “polymerase ribozyme fitness (log ratio)” value was at most -4.2. In the case of GGAUCUUCUCGAUCUAACAAAAAAGACAAAUCUGCCACAAAGCUUGAGAGCAUCUUCUGAUGCAGAGGCGGCAGCCUUCGGUGGCGCGAUAGCGCCAACGUUCUCAACUAUGACACGCAAAACGCGUGCUCUGUUGAAUGCAGUUUAUCAUG [G58U C132U G141C], the “polymerase ribozyme fitness (log ratio)” value is reported as at most -4.2. For GGAUCUUCUCGAUCUAACAAAAAAGACAAAUCUGCCACAAAGCUUGAGAGCAUCUUCUUAUGCAGAGGCGGCAGCCUUCGGUGGCGAGAUAGCGCCAACGUUCUCAACUAUGACACGCAAAACGCGUGCUCCGUUGAAUGAAGUUUAUCAUG [G58U G59U C87A G141A], the “polymerase ribozyme fitness (log ratio)” value was at most -4.2. For GGAUCUUCUCGAUCUAACAAAAAAGACAAAUCUGCCACAAAGCUUGAGAGCAUCUUCUUAUGCAGAGGCGGCAGCCUUCGGUGGCGCGAUAGCGCGAACGUUCUCAACUAUGACACGCAAAAAGCGUGCUCCGUUGAAUGGAGUUUAUUAUG [G58U G59U C96G C123A C149U], the “polymerase ribozyme fitness (log ratio)” value was -3.08. For GGAUCUUCUCGAUCUAACAAAAAAGACAAAUCUGCCACAAAGCUUGAGAGCAUCUUCUGAUGCAGAUUCGGCAGCCUUCGGUGGCGCGAUAGCGCAAACGUUCUCAACUAUGACACGCGAAACGCGUGCUCCGUUGAAUGGAGUUUAUCAUG [G58U G67U G68U C96A A119G], the “polymerase ribozyme fitness (log ratio)” value was at most -4.2. For GGAUCUUCUCGAUCUAACAAAAAAGACAAAUCUGCCACAAAGCUUGAGAGCAUCUUCUGAUGCAGAGGCGGCAGCCUUCGGUCGCGCGAUAGCGCCAACGUUCUCAACUAUGACACGCAAAACGCGUGCUCCGUUGAAUGGAGUUUAUCAUG [G58U G83C], the “polymerase ribozyme fitness (log ratio)” value was -0.165. In the case of GGAUCUUCUCGAUCUAACAAAAAAGACAAAUCUGCCACAAAGCUUGAGAGCAUCUUCUGAUGCAGAGGCGGCAGCCUUCGGUGGCACGAUAGCGCCAACGUUCUCAACUAUGACACGCAAAACGCGUGCUCCGUUGAAUGGAGUUUAUCAUG [G58U G86A], the “polymerase ribozyme fitness (log ratio)” value is reported as -1.55. For GGAUCUUCUCGAUCUAACAAAAAAGACAAAUCUGCCACAAAGCUUGAGAGCAUCUUCUGAUGCAGAGGCGGCAGCCUUCGGUGGCAAGAUAGCGCCAACGUUCUCAACUAUGACACGCAAAACGCGUGCUCCGUUGAAUGGAGUUUAUCAUG [G58U G86A C87A], the “polymerase ribozyme fitness (log ratio)” value was at most -4.2. With GGAUCUUCUCGAUCUAACAAAAAAGACAAAUCUGCCACAAAGCUUGAGAGCAUCUUCUGAUGCAGAGGCGGCAGCCUUCGGUGGCUCGAUAGCGCCAACGUUCUCAACUAUGACACGCAAAACGCGUGCUCCGUUGAAUAGAGUUUAUCAUG [G58U G86U G140A] the “polymerase ribozyme fitness (log ratio)” value was at most -4.2. In the case of GGAUCUUCUCGAUCUAACAAAAAAGACAAAUCUGCCACAAAGCUUGAGAGCAUCUUCUGAUGCAGAGGCGGCAGCCUUCGGUGGCGCUAUAUCGCCAACGUUCUCAACUAUGACACGCAAAACGCGUGCUCCGUUGAAUGGAGUUUAUCAUG [G58U G88U G92U], the “polymerase ribozyme fitness (log ratio)” value is reported as at most -4.2.
